Test in all cases: NCI-60 cell line screen, 48 h
Assay [1] concerns CCRF-CEM leukemia.
Assay [2] concerns HL-60(TB) leukemia.
The test system of assay [3] is SNB-75 CNS.
In assay [4] the test system is SW-620 colon.
The subject of assay [5] is UO-31 renal.

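Exposure lasted 48 hours, with cells grown in 96-well plates and compounds tested at five concentrations. GI50: concentration for 50% inhibition of growth.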 Not every entry of the source has a single result; some have several. This is not the full list of results. The source may hold further records. The values listed for one entry repeat one measurement in other runs, samples, wells, individuals or studies. What stands in brackets tells the records apart. The letters are not those of the source and start again with each entry.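 TGI denotes the concentration required for complete inhibition of growth.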

In the case of `CN(C)c1ccc(/C=C/c2sc3ccccc3[n+]2C)cc1`, the GI50 in assay [1] is 215 nM [sample A, 1 test] and 2.54 µM [sample B, 1 test]. The TGI in assay [1] is 3.35 µM [sample A, 1 test] and > 100 µM [sample B, 1 test]; in assay [2], 409 nM [sample A] and 8.74 µM [sample B]; in assay [3], 951 nM [sample A, 1 test] and 37.5 µM [sample B, 1 test]; in assay [4], 7.12 µM [sample A] and > 100 µM [sample B]; in assay [5], 1.01 µM [sample A, mean of 2 tests] and 17.7 µM [sample B, 1 test].

Values taken from PubChem BioAssay (NCI).
